By IC50 is meant the dose at which the fit gives 50% viability; a fit beyond the top or the lowest dose is shown as a bound at that dose. AUC, from the same fit, is the share of area under the viability curve across the 256-fold dose range; values near 1 show little effect. A top dose marked as inferred was calculated from the reported fits.
Key:
Assay in all cases: Viability of human cancer cell lines after 72 h of drug (GDSC screen)
[1] = compound: CCC1=C[C@@H]2CN(C1)Cc1c([nH]c3ccccc13)[C@@](C(=O)OC)(c1cc3c(cc1OC)N(C)[C@H]1[C@@](O)(C(=O)OC)[C@H](OC(C)=O)[C@]4(CC)C=CCN5CC[C@]31[C@@H]54)C2 [Vinorelbine]; details: top dose 0.064 µM; top dose inferred
Protocol: (§1)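 Human cancer cell lines in 384-well plates, medium with 10% serum, drug for 72 h over a 256-fold dose range (nine 2-fold or five 4-fold steps up to the top dose). Adherent lines were fixed and stained with the nucleic acid dye Syto60, suspension lines read with resazurin; signal relative to control wells, capped at 0 and 100%. One two-parameter sigmoid per drug and line, fitted in a mixed model over all curves with the slope shared within a line.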

[2] = compound: COc1cc2nccc(Oc3ccc(NC(=O)C4(C(=O)Nc5ccc(F)cc5)CC4)cc3)c2cc1OC [XL-184]; details: top dose 5.12 µM; top dose inferred
Protocol: as §1

[3] = compound: O=c1cc(N2CCOCC2)oc2c(-c3cccc4c3sc3ccccc34)cccc12 [NU-7441]; details: top dose 2 µM; top dose inferred
Protocol: as §1

[4] = compound: C=CC(=O)Nc1cc(NC(=O)c2ccc(C)c(NC(=O)c3ccno3)c2)cc(C(F)(F)F)c1 [QL-XI-92]; details: top dose 10.24 µM; top dose inferred
Protocol: as §1

[5] = compound: COc1cc2ncnc(Nc3cc(Br)c(O)c(Br)c3)c2cc1OC [WHI-P97]; details: top dose 10.24 µM; top dose inferred
Protocol: as §1

[6] = compound: CNCc1ccc(-c2[nH]c3cc(F)cc4c3c2CCNC4=O)cc1 [AG-014699]; details: top dose 5 µM; top dose inferred
Protocol: as §1

[7] = compound: O=c1cc(CN2CCOCC2)occ1OCCCCCSc1ccnc2cc(C(F)(F)F)ccc12 [EHT 1864]; details: top dose 10 µM; top dose inferred
Protocol: as §1

[8] = compound: N=C(N)NC(=N)NCCc1ccccc1 [Phenformin]; details: top dose 4000 µM; top dose inferred
Protocol: as §1

Cell Line | AUC [1] | IC50 [1] [µM] | AUC [2] | IC50 [2] [µM] | AUC [3] | IC50 [3] [µM] | AUC [4] | IC50 [4] [µM] | AUC [5] | IC50 [5] [µM] | AUC [6] | IC50 [6] [µM] | AUC [7] | IC50 [7] [µM] | AUC [8] | IC50 [8] [µM]
DU-145 (prostate, adherent) | 0.539 | 0.00518 | 0.98 | > 5.12 | 0.984 | > 2 | 0.961 | > 10.2 | 0.972 | > 10.2 | 0.935 | > 5 | 0.974 | > 10 | 0.969 | > 4000
EKVX (lung adenocarcinoma, adherent) | 0.88 | > 0.064 | 0.958 | > 5.12 | 0.863 | > 2 | 0.97 | > 10.2 | 0.85 | > 10.2 | 0.939 | > 5 | 0.923 | > 10 | 0.672 | 1320
GAMG (glioma, adherent) | 0.655 | 0.011 | 0.898 | > 5.12 | 0.91 | > 2 | 0.843 | 7.75 | 0.985 | > 10.2 | 0.903 | > 5 | 0.942 | > 10 | 0.781 | 1740
H2591 (mesothelioma, adherent) | 0.699 | 0.0173 | 0.922 | > 5.12 | 0.963 | > 2 | 0.976 | > 10.2 | 0.96 | > 10.2 | 0.967 | > 5 | 0.919 | > 10 | 0.962 | > 4000
H3255 (lung adenocarcinoma, adherent) | 0.548 | 0.00555 | 0.982 | > 5.12 | 0.958 | > 2 | 0.98 | > 10.2 | 0.6 | 1.27 | 0.983 | > 5 | 0.967 | > 10 | 0.955 | > 4000
HCC1806 (breast, adherent) | 0.516 | 0.00441 | 0.952 | > 5.12 | 0.989 | > 2 | 0.954 | > 10.2 | 0.946 | > 10.2 | 0.965 | > 5 | 0.978 | > 10 | 0.668 | 701
HDQ-P1 (breast, adherent) | 0.785 | 0.0331 | 0.974 | > 5.12 | 0.975 | > 2 | 0.973 | > 10.2 | 0.965 | > 10.2 | 0.984 | > 5 | 0.967 | > 10 | 0.817 | 2800
HLE (liver, adherent) | 0.646 | 0.00988 | 0.934 | > 5.12 | 0.947 | > 2 | 0.971 | > 10.2 | 0.945 | > 10.2 | 0.956 | > 5 | 0.93 | > 10 | 0.963 | > 4000
HeLa (cervix, adherent) | 0.796 | 0.0285 | 0.978 | > 5.12 | 0.989 | > 2 | 0.989 | > 10.2 | 0.981 | > 10.2 | 0.989 | > 5 | 0.97 | > 10 | 0.498 | 248
KM12 (large intestine, adherent) | 0.463 | 0.00313 | 0.768 | 2.07 | 0.955 | > 2 | 0.965 | > 10.2 | 0.983 | > 10.2 | 0.962 | > 5 | 0.936 | > 10 | 0.481 | 221
LK-2 (lung squamous cell carcinoma, adherent) | 0.649 | 0.0101 | 0.977 | > 5.12 | 0.988 | > 2 | 0.987 | > 10.2 | 0.967 | > 10.2 | 0.907 | > 5 | 0.959 | > 10 | 0.599 | 460
MFE-319 (endometrium, adherent) | 0.54 | 0.00511 | 0.984 | > 5.12 | 0.976 | > 2 | 0.989 | > 10.2 | 0.982 | > 10.2 | 0.948 | > 5 | 0.959 | > 10 | 0.953 | > 4000
MKN1 (stomach, adherent) | 0.653 | 0.0109 | 0.964 | > 5.12 | 0.937 | > 2 | 0.98 | > 10.2 | 0.948 | > 10.2 | 0.968 | > 5 | 0.974 | > 10 | 0.752 | 1390
NCI-H28 (mesothelioma, adherent) | 0.85 | > 0.064 | 0.965 | > 5.12 | 0.935 | > 2 | 0.947 | > 10.2 | 0.97 | > 10.2 | 0.915 | > 5 | 0.908 | > 10 | 0.969 | > 4000
NCI-H520 (lung squamous cell carcinoma, adherent) | 0.421 | 0.00242 | 0.855 | 4.3 | 0.959 | > 2 | 0.885 | > 10.2 | 0.892 | > 10.2 | 0.96 | > 5 | 0.961 | > 10 | 0.735 | 1200
NCI-H727 (lung carcinoid, adherent) | 0.88 | > 0.064 | 0.977 | > 5.12 | 0.886 | > 2 | 0.959 | > 10.2 | 0.935 | > 10.2 | 0.946 | > 5 | 0.962 | > 10 | 0.907 | > 4000
